Laboratory results reported in the supplement of paper PMC8728848.
The list shows a part of the results.

Tests used:
Test in all cases: glycan array binding signal (z-score within array); higher = stronger binding
Conditions in all cases: glycan notation: IUPAC condensed, linker removed
[1] = target: Neu5Ac(a2-3)Gal(b1-4)GlcNAc(b1-2)Man(a1-3)[GlcNAc(b1-4)][Neu5Ac(a2-3)Gal(b1-4)GlcNAc(b1-2)Man(a1-6)]Man(b1-4)GlcNAc(b1-4)GlcNAc
Outline: (§1)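 The binding signal is a Z-score computed within each array and averaged over linkers. Arrays of the same protein sequence at different concentrations or buffers were also averaged together. Data originate from 3228 arrays in the Consortium for Functional Glycomics database, kept only where the protein sequence was available.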

[2] = target: Neu5Ac(a2-3)Gal(b1-4)GlcNAc(b1-2)Man(a1-3)[Neu5Ac(a2-3)Gal(b1-4)GlcNAc(b1-2)Man(a1-6)]Man(b1-4)GlcNAc(b1-4)GlcNAc
Outline: as §1

[3] = target: Neu5Ac(a2-3)Gal(b1-4)GlcNAc(b1-2)Man(a1-3)[Neu5Ac(a2-3)Gal(b1-4)GlcNAc(b1-2)Man(a1-6)]Man(b1-4)GlcNAc(b1-4)[Fuc(a1-6)]GlcNAc
Outline: as §1

[4] = target: Neu5Ac(a2-3)Gal(b1-4)GlcNAc(b1-2)Man(a1-3)[Neu5Ac(a2-6)Gal(b1-4)GlcNAc(b1-2)Man(a1-6)]Man(b1-4)GlcNAc(b1-4)GlcNAc
Outline: as §1

[5] = target: Neu5Ac(a2-3)Gal(b1-4)GlcNAc(b1-2)[Neu5Ac(a2-3)Gal(b1-4)GlcNAc(b1-4)]Man(a1-3)[GlcNAc(b1-4)][Neu5Ac(a2-3)Gal(b1-4)GlcNAc(b1-2)[Neu5Ac(a2-3)Gal(b1-4)GlcNAc(b1-6)]Man(a1-6)]Man(b1-4)GlcNAc(b1-4)GlcNAc
Outline: as §1

[6] = target: Neu5Ac(a2-3)Gal(b1-4)GlcNAc(b1-2)[Neu5Ac(a2-3)Gal(b1-4)GlcNAc(b1-4)]Man(a1-3)[GlcNAc(b1-4)][Neu5Ac(a2-3)Gal(b1-4)GlcNAc(b1-4)Man(a1-6)]Man(b1-4)GlcNAc(b1-4)GlcNAc
Outline: as §1

[7] = target: Neu5Ac(a2-3)Gal(b1-4)GlcNAc(b1-2)[Neu5Ac(a2-3)Gal(b1-4)GlcNAc(b1-6)]Man(a1-6)[Neu5Ac(a2-3)Gal(b1-4)GlcNAc(b1-2)Man(a1-3)]Man(b1-4)GlcNAc(b1-4)GlcNAc
Outline: as §1

[8] = target: Neu5Ac(a2-3)Gal(b1-4)GlcNAc(b1-2)[Neu5Ac(a2-3)Gal(b1-4)GlcNAc(b1-6)]Man(a1-6)[Neu5Ac(a2-3)Gal(b1-4)GlcNAc(b1-2)Man(a1-3)][GlcNAc(b1-4)]Man(b1-4)GlcNAc(b1-4)GlcNAc
Outline: as §1

[9] = target: Neu5Ac(a2-3)Gal(b1-4)GlcNAc(b1-3)Gal
Outline: as §1

[10] = target: Neu5Ac(a2-3)Gal(b1-4)GlcNAc(b1-3)Gal(b1-3)GlcNAc
Outline: as §1

[11] = target: Neu5Ac(a2-3)Gal(b1-4)GlcNAc(b1-3)Gal(b1-4)GlcNAc
Outline: as §1

[12] = target: Neu5Ac(a2-3)Gal(b1-4)GlcNAc(b1-3)Gal(b1-4)GlcNAc(b1-2)Man(a1-3)[Neu5Ac(a2-3)Gal(b1-4)GlcNAc(b1-3)Gal(b1-4)GlcNAc(b1-2)Man(a1-6)]Man(b1-4)GlcNAc(b1-4)GlcNAc
Outline: as §1

[13] = target: Neu5Ac(a2-3)Gal(b1-4)GlcNAc(b1-3)Gal(b1-4)GlcNAc(b1-3)Gal(b1-4)GlcNAc
Outline: as §1

[14] = target: Neu5Ac(a2-3)Gal(b1-4)GlcNAc(b1-3)Gal(b1-4)GlcNAc(b1-3)Gal(b1-4)GlcNAc(b1-2)Man(a1-3)[Neu5Ac(a2-3)Gal(b1-4)GlcNAc(b1-3)Gal(b1-4)GlcNAc(b1-3)Gal(b1-4)GlcNAc(b1-2)Man(a1-6)]GalNAc
Outline: as §1

[15] = target: Neu5Ac(a2-3)Gal(b1-4)GlcNAc(b1-3)Gal(b1-4)GlcNAc(b1-3)GalNAc
Outline: as §1

[16] = target: Neu5Ac(a2-3)Gal(b1-4)GlcNAc(b1-3)Gal(b1-4)GlcNAc(b1-3)[Neu5Ac(a2-3)Gal(b1-4)GlcNAc(b1-3)Gal(b1-4)GlcNAc(b1-6)]GalNAc
Outline: as §1

[17] = target: Neu5Ac(a2-3)Gal(b1-4)GlcNAc(b1-3)Gal(b1-4)GlcNAc(b1-6)[Gal(b1-3)]GalNAc
Outline: as §1

[18] = target: Neu5Ac(a2-3)Gal(b1-4)GlcNAc(b1-3)Gal(b1-4)[Fuc(a1-3)]GlcNAc
Outline: as §1

[19] = target: Neu5Ac(a2-3)Gal(b1-4)GlcNAc(b1-3)GalNAc
Outline: as §1

[20] = target: Neu5Ac(a2-3)Gal(b1-4)GlcNAc(b1-3)[Neu5Ac(a2-3)Gal(b1-4)GlcNAc(b1-6)]GalNAc
Outline: as §1

[21] = target: Neu5Ac(a2-3)Gal(b1-4)GlcNAc(b1-6)GalNAc
Outline: as §1

[22] = target: Neu5Ac(a2-3)Gal(b1-4)GlcNAc(b1-6)[Gal(b1-3)]GalNAc
Outline: as §1

[23] = target: Neu5Ac(a2-3)Gal(b1-4)GlcNAc(b1-6)[Neu5Ac(a2-3)Gal(b1-3)]GalNAc
Outline: as §1

[24] = target: Neu5Ac(a2-3)Gal(b1-4)GlcNAc6S
Outline: as §1

[25] = target: Neu5Ac(a2-3)Gal(b1-4)[Fuc(a1-3)]GlcNAc
Outline: as §1

[26] = target: Neu5Ac(a2-3)Gal(b1-4)[Fuc(a1-3)]GlcNAc(b1-2)Man
Outline: as §1

[27] = target: Neu5Ac(a2-3)Gal(b1-4)[Fuc(a1-3)]GlcNAc(b1-3)Gal
Outline: as §1

[28] = target: Neu5Ac(a2-3)Gal(b1-4)[Fuc(a1-3)]GlcNAc(b1-3)Gal(b1-4)GlcNAc
Outline: as §1

[29] = target: Neu5Ac(a2-3)Gal(b1-4)[Fuc(a1-3)]GlcNAc(b1-3)Gal(b1-4)[Fuc(a1-3)]GlcNAc(b1-3)Gal(b1-4)[Fuc(a1-3)]GlcNAc
Outline: as §1

[30] = target: Neu5Ac(a2-3)Gal(b1-4)[Fuc(a1-3)]GlcNAc(b1-3)GalNAc
Outline: as §1

[31] = target: Neu5Ac(a2-3)Gal(b1-4)[Fuc(a1-3)]GlcNAc(b1-6)[Gal(b1-3)]GalNAc
Outline: as §1

[32] = target: Neu5Ac(a2-3)Gal(b1-4)[Fuc(a1-3)]GlcNAc(b1-6)[Neu5Ac(a2-3)Gal(b1-3)]GalNAc
Outline: as §1

[33] = target: Neu5Ac(a2-3)Gal(b1-4)[Fuc(a1-3)]GlcNAc6S
Outline: as §1

[34] = target: Neu5Ac(a2-3)Gal6S(b1-4)GlcNAc
Outline: as §1

[35] = target: Neu5Ac(a2-3)Gal6S(b1-4)[Fuc(a1-3)]GlcNAc
Outline: as §1

[36] = target: Neu5Ac(a2-3)GalNAc
Outline: as §1

[37] = target: Neu5Ac(a2-3)GalNAc(b1-4)GlcNAc
Outline: as §1

B1: UEA-I (Ulex europaeus), P22972 (protein)
chain: SDDLSFKFKNFSQNGKDLSFQGDASVIETGVLQLNKVGNNLPDETGGIARYIAPIHIWNCNTGEVASFITSFSFFMETSANPKAATDGLTFFLAPPDSPLRRAGGYFGLFEDTKDNDSSYQTVAVEFDTIGSPVNFDDPGFPHIGIDVNRVKSINAERWNKRYGLNNVANVEIIYEASSKTLTASLTYPSDQTSISVTSIVDLKEILPEWVSVGFSGGTYIGRQATHEVLNWYFTSNLINTNS
glycan array binding signal (z-score) [1]: -0.26 | glycan array binding signal (z-score) [2]: -0.203 | glycan array binding signal (z-score) [3]: -0.234 | glycan array binding signal (z-score) [4]: -0.209 | glycan array binding signal (z-score) [5]: -0.276 | glycan array binding signal (z-score) [6]: -0.292 | glycan array binding signal (z-score) [7]: -0.198 | glycan array binding signal (z-score) [8]: -0.26 | glycan array binding signal (z-score) [9]: -0.298 | glycan array binding signal (z-score) [10]: -0.118 | glycan array binding signal (z-score) [11]: -0.218 | glycan array binding signal (z-score) [12]: 0.605 | glycan array binding signal (z-score) [13]: 0.026 | glycan array binding signal (z-score) [14]: 0.601 | glycan array binding signal (z-score) [15]: -0.156 | glycan array binding signal (z-score) [16]: -0.105 | glycan array binding signal (z-score) [17]: -0.1 | glycan array binding signal (z-score) [18]: -0.093 | glycan array binding signal (z-score) [19]: -0.22 | glycan array binding signal (z-score) [20]: -0.163 | glycan array binding signal (z-score) [21]: -0.243 | glycan array binding signal (z-score) [22]: 0.071 | glycan array binding signal (z-score) [23]: -0.233 | glycan array binding signal (z-score) [24]: -0.222 | glycan array binding signal (z-score) [25]: -0.199 | glycan array binding signal (z-score) [26]: -0.129 | glycan array binding signal (z-score) [27]: -0.243 | glycan array binding signal (z-score) [28]: -0.115 | glycan array binding signal (z-score) [29]: -0.167 | glycan array binding signal (z-score) [30]: 0.004 | glycan array binding signal (z-score) [31]: 0.049 | glycan array binding signal (z-score) [32]: -0.078 | glycan array binding signal (z-score) [33]: -0.163 | glycan array binding signal (z-score) [34]: -0.2 | glycan array binding signal (z-score) [35]: -0.136 | glycan array binding signal (z-score) [36]: -0.253 | glycan array binding signal (z-score) [37]: -0.247
